Experimental data as given in paper PMC5515716 (Journal of immunology (Baltimore, Md. : 1950), 2017).
Where no end group is shown, it is not given here.

What follows are sequences tested on CD8^+ T cells in PBMC of HSV-seropositive individuals (assay: CD107a/b cytotoxicity marker assay on peptide-stimulated CD8+ T cells). Conditions: 10 HLA-A*0201(+) HSV-1 seropositive individuals, individual peptide 10µg/ml.
Type: cell-based, human

Sequence | percentage of CD107^a/b+CD8^+ T cells induced by individual peptide
FLGGHVAVA [UL43_302–310] | up to 5.6%
RLTGYPAGI [UL44_443–451] | up to 5.1%
FIPQYLSAV [UL25_572–580] | up to 4.5%
TLRGLFFSV [UL43_386–394] | up to 5.2%
FLGDDPSPA [UL44_400–408] | up to 5.7%
QLAHLVYVL [UL10_162–170] | up to 6.8%
MMLRDRWSL [UL26_221–229] | up to 4.7%
ALMLRLLRT [UL9_196–204] | up to 5.1%
FLGAGALAV [UL43_272–280] | up to 4.9%
